Results published in the RNAGym collection of RNA variant scans (doi:10.1101/gad.245936.114).
Variants at the background level are over-represented here.

B1: tRNA (parent)
chain: CUCUCGGUAGCCAAGUUGGUUUAAGGCGCAAGACUUUAAUUUAUCACUACGAAAUCUUGAGAUCGGGCGUUCGACUCGCCCCCGGGAGAUUUUUUCCUCGAGCAA

Variants of: B1
Assay: nonsense suppression (GFP-seq) (ratio to wild type); higher = more function; SUP4oc tRNA, yeast GFP reporter sort-seq
How it was run: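 Nonsense suppression (GFPSEQ) is the median GFP/RFP ratio of each sorting bin, weighted by the variant's estimated share of cells in that bin and expressed relative to the unmutated parent tRNA. Yeast strains carried genome-integrated variants of an ochre-suppressor tRNA from a library with ~3% random mutations, plus a galactose-driven GFP ochre reporter and RFP, and were grown in raffinose/galactose medium containing 80 mg/L adenine. Cells were sorted into GFP/RFP bins, each bin was Illumina-sequenced (phred ≥30), and variants were kept only with ≥100 reads and ≥30 cells.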

Nonsense suppression, ≤ 0.026:
CUAUCGGUAGCCAAGUUGGUUUAAGGCGCAAGACUUUAAUUUAUCACUACGAAAUCUUGAGAUCGGGCGUCCGAGUCGCCCCCGGGAGAUUUUUUCCUCGAGCAA [C3A U71C C75G]
CUAUCGGUAGCCAAGUUGGCUUAAGGCGCAAGACUUUAAUUUAUCACUACGAAAUCUUGAGAUCGGGCGUUCGACUCGCCCCCGGGAGAUUUUUUCCUCGAGCAA [C3A U20C]
CUAUCGGUAGCCAAGUUGGUUUAAGGCGCAAGACUUUAAUUUAUCACUACGAAAUCUUGAGAUCGGGCGUUCGACUCGCCCCCUGGAGAUUUUUUCCUCGAGCAA [C3A G84U]
CUGUCGGUAGCCAGGUUGGUUUAAGGCGCAAGACUUUAAUUUAUCACUACGAAAUCUUGAGAUCGGGCGUUCGACUCGCCUCCGGGAGAUUUUUUCCUCGAGCAA [C3G A14G C81U]
CUAUCGGGAGCCAAGUUGGUUUAAGGCGCAAGACUUUAAUUUAUCACUACGAAAUCUUGAGAUCGGGCGUUCGACUCGACCCCGGGAGAUUUUUUCCUCGAGCAA [C3A U8G C79A]
CUAGCGGUAGCCAAGUUGGUUUAAGGCGCAAGACUUUAAUUUAUCACUACGAAAUCUUGAGAUCGGGCGUUCGACUCGCCCCCGGAAGAUUUUUUCCUCGAGCAA [C3A U4G G86A]
CUAUCGGCAGCCAAGUUGGUUUAGGGCGCAAGACUUUAAUUUAUCACUACGAAAUCUUGAGAUCGGGCGUUCGACUCGCCCCCGGGAGAUUUUUUCCUCGAGCAA [C3A U8C A24G]
CUAUCGGUAGCCAAGUUGGUUUAAGGCGCAAGACUUUAAUUUAUCACUACGAAAUCCUGAGAUCGGGGGUUCGACUCGCCCCCGGGAGAUUUUUUCCUCGAGCAA [C3A U57C C68G]
CUACCGGUAGCCAAGUUGGUGUAAGGCGCAAGACUUUAAUUUAUCACUACGAAAUCUUGAGAUCGGGCGUUCGACUCGCCCCCGGGAGAUUUUUUCCUCGAGCAA [C3A U4C U21G]
CUAUCGGUAGCCAAGUUGGUUUAAGGCGCAAGACUUUAAUUUAUCACUACGAAAUCUUGAGAUCGGGCGAUCGACUCGCCCCCGGGAGAUUUUUUCCUCGAGCAA [C3A U70A]
CUAUCGGUAGCCAAGUUGGUUUAAGGCGCAAGACUUUAAUUUAUCACUACGAAAUCUUGAGAUCGGGCGCUCGACUCGCCCCCGGGAGAUUUUUUCCUCGAGCAA [C3A U70C]
CUAUCGGUAGCCAAGUUGGUUUAAGGCGCAAGACUUUAAUUUAUCACUACGAAAUCUUGAGAUCGGGCGGUCGACUCGCCCCCGGGAGAUUUUUUCCUCGAGCAA [C3A U70G]
CUAUCGGUAGCCAAGUUGGUUUAAGGCGCAAGACUUUAAUUUAUCACUACGAAAUCUUGAGAUCGGGCGUUCGACUCCCCCCCGGGAGAUUUUUUCCUCGAGCAA [C3A G78C]
CUAUCGGUAGCCAAGUUGGUUUAACGCGCAAGACUUUAAUUUAUCACUACGAAAUCUUGAGAACGGGCGUUCGACUCGCCCCCGGGAGAUUUUUUCCUCGAGCAA [C3A G25C U63A]
CUAUCGGUAGCCAAGUUGGUUAAAGGCGCAAGACUUUAAUUUAUCACUACGAAAUCUUGAGAUCGGGCGUCCGACUCGCCCCCGGGAGAUUUUUUCCUCGAGCAA [C3A U22A U71C]
CUAUCGGUAGCCAAGUUGGUUUAAGGCGCAAGACUUUAAUUUAUCACUACGAAAUCGCAAGACCGGGCGUUCGACUCGCCCCCGGGAGAUUUUUUCCUCGAGCAA [C3A U57G U58C G59A U63C]
CUGUCGGUAGCCAGGUUGGUUUAAGGCGCAAGACUUUAAUUUAUCACUACGAAAGCUUGAGAUCGGGCGUUCGACUCGCUCCCGGGAGAUUUUUUCCUCGAGCAA [C3G A14G U55G C80U]
CUGUCGGUCGCCAAGUUGGUAUUAGGCGCAAGACUUUAAUUUAUCACUACGAAAUCUUGAGAUCGGGCGUUCGACUCGCCCCCGGGAGAUUUUUUCCUCGAGCAA [C3G A9C U21A A23U]
CUAUCGGUAGCCAAGUUGGUUCAAGGCGCAAGACUUUAAUUUAUCACUACGAAAUCGUGAGAUCGGGCGUUCGACUCGCCCCCGGGAGAUUUUUUCCUCGAGCAA [C3A U22C U57G]
CUGUCGGUAGCCUAGUUACAUUAAGGCGCAAGACUUUAAUUUAUCACUACGAAAUCUUGAUAUCGGGCGUUCGACUCGCGCCCGGGAGAUUUUUUCCUCGAGCAA [C3G A13U G18A G19C U20A G61U C80G]
CUAACGGUAGCCAAGUUGGUUUAAGGCGCAAGAAUUUAAUUUAUCACUACGAAAUCUUCAGAUCGGGCGUUCGACGCGCCCCCGGGAGAUUUUUUCCUCGAGCAA [C3A U4A C34A G59C U76G]
CUAUCGGUAGCCAAGUUGGUUUAAGGCGCAAGACUUUAAUUUAUCACUACGAAAUCUUGAGAUCGGGCGUUCGACUCGCCCCCGGGAUAUUUUUUCCUCGAGCAA [C3A G88U]
CUAUCGGUAGCCAAGUUGGUUUAAGGCGCAAGACUUUAAUUUAUCACUACGAAAUCGUGAGAUCGGGCGUUCGACUCGCCCCCGGGAGAUUUUUUCCUCGAGCAA [C3A U57G]
CUAUCGGUAGCCAAGUUGGAUUAAGGCACAAGACUUUAAUUUAUCACUACGAAAUCUUGAGAUCGGGCGUUCGACUCGCCCCCGGGAGAUUUUUUCCUCGAGCAA [C3A U20A G28A]
CUAUCGGUAGCCAAGUUGGUUUAAGGCGCAAGACUUUAAUUUAUCACUACGAAAUCUUGAGAUCGGGCGUCCGGCUCGCCCCCCGGAGAUUUUUUCCUCGAGCAA [C3A U71C A74G G84C]
CUAUCGGUAGCCAAGUUGGUUUAAGGCGCAAGACUUUAAUUUAUCACUACGAAAUCUUUAGAUCGGGCGUUCGACUCGCCCCCGGGCGAUUUUUUCCUCGAGCAA [C3A G59U A87C]
CUAUCGGUAGCCAAGUUGGUUUAAGGCGCAAGACUUUAAUUUAUCACUACGAAAUCAUGAGAUCGGUCGUUCGACUCGCCCCCGGGAGAUUUUUUCCUCGAGCAA [C3A U57A G67U]
CUAUCGGUAGCCAAGUUGGUUUAAGGCGCAAGACUUUAAUUUAUCACUACGAAAUCUUGAGAUCGUGCGUUCGACUCGCCCCCGGGAGAUUUUUUCCUCGAGCAA [C3A G66U]
CUAUCGGGAGCCAAGUUGGUUUAAGGCGCAAGACUUUAAUUUAUCACUACGAAAUCUUGAGAUCGGGCGUUCGACUCGCCCACGGGAGAUUUUUUCCUCGAGCAA [C3A U8G C82A]
CUAUCGGUAGCCAAGUUGGUUCAAGGCGCAAGACUUUAAUUUAUCACUACGAAAUCUUGAGAUCCGGCGUUCGACUCGCCCCUGGGAGAUUUUUUCCUCGAGCAA [C3A U22C G65C C83U]
CUACCGGUAGCCAAGUUGGUUUAAGGCGCCAGAUUUUAAUUUAUCACUACGAAAUCUUGAGAUCGGGCGUUCGACUCGCCCCCGGGAGAUUUUUUCCUCGAGCAA [C3A U4C A30C C34U]
CUAUCGGAAGCCAAGUUGGUUUCAGGCGCAAGACUUUAAUUUAUCACUACGAAAUCUUGAGAUCGGGCGUUCGACUCGCCCCCGGGAGAUUUUUUCCUCGAGCAA [C3A U8A A23C]
CUAUCGGUAGCCAAGUUGGUUUAAGGCGCAAGACUUUAAUUUAUCACUACGAAAUCGUGAGAUCGGGCGUUCGACUCGCCUCCGGGAGAUUUUUUCCUCGAGCAA [C3A U57G C81U]
CUAUCGGUAGCCAAGUUGGUUUAAGGCGCAAGACUUUAAUUUAUCACUACGAAAACUUGAGAUCGGGCGUUCGACUCGCUCCCGGGAGAUUUUUUCCUCGAGCAA [C3A U55A C80U]
CUGUCGGUUGCCAAGUUGGCUUAAGGCGCAAGACUUUAAUUUAUCACUACGAAAUCUUGACAUCGGGCGUUCGACUCGCCCCCGCGAGAUUUUUUCCUCGAGCAA [C3G A9U U20C G61C G85C]
CUAACGGUAGCCAAGUUGGUUUCAGGCGCAAGACUUUAAUUUAUCACUACGAAAUCUUGAGAUCGGGCGUUCGACUCGCCCCCGGGAGAUUUUUUCCUCGAGCAA [C3A U4A A23C]
CUAUCGGUAGCCAAGUUGGUCUAAGGCGCAUGCCUUUAAUUUAUCACUACGAAUCCUUGAGAUCGGGCGUUCGACUCGCCCCCAGGAGAUUUUUUCCUCGAGCAA [C3A U21C A31U A33C A54U U55C G84A]
CUAUCGGUAGCCAAGUUGGUUUAAGGCGCAAGACUUUAAUUUAUCACUACGAAAUCUUGACAUCGGGCGUUCGACUCGCCCCCGGGAGAUUUUUUCCUCGAGCAA [C3A G61C]
CUAUCGGUAGCCAAGUUGGUUUAAGACGCAAGACUUUAAUUUAUCACUACGAAAUCUUGAGAUCGGGCGUUCGACUCGCCCCCGGGAGAUUUUUUCCUCGAGCAA [C3A G26A]
CUAUCGGUAGCCAAGUUGGUUUAAGCCGCAAGACUUUAAUUUAUCACUACGAAAUCUUGAGAUCGGGCGUUCGACUCGCCCCCGGGAGAUUUUUUCCUCGAGCAA [C3A G26C]
CUAUCGGAAGCCAUGUUGGUUUAAGGCGCAAGACUUUAAUUUAUCACUACGAAAUCUUGGGAUCGGGCGUUCGACUGGCCCCCGGGAGAUUUUUUCCUCGAGCAA [C3A U8A A14U A60G C77G]
CUAUCGGAUGCCAAGUUGGUUUAAGGCGCAAGACUUUAAUUUAUCACUACGAAAUCUUGAGAUCGGGCGUUCGACUCGCCUCCGGGAGAUUUUUUCCUCGAGCAA [C3A U8A A9U C81U]
CUAUCGGUAGCCAAGUUGGUUUAAGGCGCAAGACUUUAAUUUAUCACUACGAAAUCUUGAGAUCGGGCGUUCGACGCGCCCCCGGGAGAUUUUUUCCUCGAGCAA [C3A U76G]
CUAUCGGUAGCCAAGGUGGUUUAAGGCGCAAGACUUUAAUUUAUCACUACGAAAUCUUAAGAUCGGGCGUUCGACUCGCCCCCGGGAGAUUUUUUCCUCGAGCAA [C3A U16G G59A]
CUAUCGGUAGCCAAGUUGGUUUAAGGCGCAAGACUUUAAUUUAUCACUACGAAAUCUUGAGAACGGGCGUUCGACUCGCCCCCGGGAGAUUUUUUCCUCGAGCAA [C3A U63A]
CUAUCGGUAGCCAAGUUGGUUUAAGGCGCAAGACUUUAAUUUAUCACUACGAAAUCUUCAGAUCGGGUGUUCGACUCGCCCCCGGGAGAUUUUUUCCUCGAGCAA [C3A G59C C68U]
CUAUCGGUAGCCAAGUUGGUUUAAGGCGCAAAACUUUAAUUUAUCACUACGAAAUCUUGAGAUCGGGCGUUGGACUCGCCCCCGGGAGAUUUUUUCCUCGAGCAA [C3A G32A C72G]
CUGUCGGUCGCCAAGUUGGUUUAAGGCGCAAGACUUUAAUUUAUCACUACGAAAUCUUGAGAUCGGGCGUUCGACUCGCCCCCGGGAGAUUUUUUCCUCGAGCAA [C3G A9C]
CUAUCGGUAGCCAAGUUGGUUUAAGGCGCAAGACUUUAAUUUAUCACUACGAAAUCUUGAGAUCGGGCGUUCGACUCGCCCCCGAGAGAUUUUUUCCUCGAGCAA [C3A G85A]
CUAUCGGUAGCCAAGUUGGUUUAAGGCGCAAGACUUUAAUUUAUCACUACGAAAUCUUGAGAUCGGGCGUUCGACUCACCCCCGGCGGAUUUUUUCCUCGAGCAA [C3A G78A G86C A87G]
CUAUCGGUAGCCAAGUUGGUUUAAGGCGCAAGACCUUAAUUUAUCACUACGAAAUCUUGAGAUCGGGCGUUCAACUCGCCCCCGGGAGCUUUUUUCCUCGAGCAA [C3A U35C G73A A89C]
CUAUCGGUAGCCAAGUUGGUUUAAGGCGCAAGACUUUAAUUUAUCACUACGAAAUCUUGAGAUCGGGCGUUCGACUCGCCCCCGGAAGAUUUUUUCCUCGAGCAA [C3A G86A]
CUGUCGGUUGCCAAGUUGGUUUAAGGCGCAAGACUUUAAUUUAUCACUACGAAAUCUUGAGAUCGGGUGUUCGACUCGCCCCCGGGACAUUUUUUCCUCGAGCAA [C3G A9U C68U G88C]
CUAUCGGUAGCCAAGUCGGUUUAAGGCGCAAGACUUUAAUUUAUCACUACGAAAUCUUGAGCUCGGGCGUUCGACUAGCCCCCGGGAGAUUUUUUCCUCGAGCAA [C3A U17C A62C C77A]
